According to PubChem BioAssay AID1466 (National Center for Advancing Translational Sciences (NCATS), 2008):
The campaign covered roughly 200,000 compounds. About 10 (0.005%) were called active. The inconclusive results got no clear call from the source; some entries with a clear call stand among them for comparison. Calls follow the shape of the dose curve; as a rule, active = well fitted inhibition curve with a large enough effect; inconclusive = small, poorly fitted or top-dose-only effect, or effect the other way, or another doubt; inactive = no such curve, though single readings can be large or run the other way. No potency is given beside an inconclusive call; the fits are too rough.

Target: Lysosomal alpha-glucosidase (Homo sapiens) (UniProt P10253)
Assay: qHTS Assay for Inhibitors of Human alpha-Glucosidase as a Potential Chaperone Treatment of Pompe Disease;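 as to activity change, negative = inhibition: plate controls were uninhibited enzyme wells for no effect and no-enzyme background for full effect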
Details: purified human GAA, 4-MU-alpha-glucoside fluorescence; activity change, negative = inhibition: at 76.9 µM (top of the series) unless noted
How it was run: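 Endpoint fluorogenic read: 20 min room-temperature reaction of 4 nM human alpha-glucosidase with 400 uM 4-methylumbelliferyl-alpha-D-pyranoside, pH 5.0, quenched with 1M NaOH/1M glycine pH 10. AC50 from Hill modeling.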
Potency is read from the fitted curve at half-maximal effect; tags tell the direction and shape of the fitted curve.

Row | Structure (SMILES) | Potency | activity change, negative = inhibition
1 | CC12CN(C(=O)c3ccccc3Br)CC(C)(CN(C(=O)c3ccccc3Br)C1)C2=O | inconclusive [inhibitor, partial curve] | –
2 | O=C(O)CCCn1cc(NC(=O)c2cc(F)c(F)cc2Cl)cn1 | – | inactive: 9.49%
3 | Nc1cc(-c2ccc(Br)cc2)nn1Cc1ccccc1 | inconclusive [activator, full curve, poor fit] | –
4 | Cc1cc(NC(=O)COC(=O)c2oc3c(Cl)cccc3c2C)no1 | inconclusive [inhibitor, partial curve] | –
5 | Cc1cc(=O)oc2cc(OC(=O)c3nn(C(C)C)c(=O)c4ccccc34)ccc12 | inconclusive [activator, partial curve] | –
6 | O=C(O)/C=C/c1cn(Cc2ccccc2)nc1-c1ccccc1 | inconclusive [inhibitor, full curve] | –
7 | COc1cc(OC)c2c(C)cc(=O)oc2c1 | inconclusive [activator, single point] | –
8 | Cc1[nH]c2ccccc2c1C(=O)C(=O)N1CCN(C)CC1 | inconclusive [inhibitor, single point] | –
9 | COCCn1c(=O)[nH]c2cc(C(=O)NCc3cccnc3)ccc2c1=O | inconclusive [activator, partial curve] | –
10 | COc1ccc(N2CCN(C(=O)C(Cc3ccccc3)n3cccc3)CC2)cc1 (configuration not stated) | – | inconclusive: -15.5% [inhibitor]
11 | CC(C)CC1NC(=O)N(CC(=O)c2ccc3c(c2)OCCO3)C1=O (configuration not stated) | inconclusive [inhibitor, full curve] | –
12 | COc1ccc(Nc2ncc(C(=O)N3CCN(Cc4ccccc4)CC3)c3ccccc23)cc1 | inconclusive [inhibitor, partial curve, poor fit] | –
13 | O=C(C1CCCN(Cc2nc(-c3ccc(Cl)cc3)no2)C1)N1CCOCC1 (configuration not stated) | inconclusive [inhibitor, single point] | –
14 | Cc1c(NC(=O)c2ccc(-c3ccc([N+](=O)[O-])cc3Cl)o2)c(=O)n(-c2ccccc2)n1C | – | inconclusive: 5.85% [activator]
15 | COc1cccc(C(=O)C2CCCN(C(=O)CCc3scnc3C)C2)c1 (configuration not stated) | inconclusive [inhibitor, single point] | –
16 | Brc1cccc(-c2nnc3n2CCCCC3)c1 | – | inconclusive: 15.9% [activator]
17 | CCCCN(C)C(=O)C(Cc1ccccc1)NS(=O)(=O)c1ccc2c(c1)c(=O)n(C)c(=O)n2C (configuration not stated) | inconclusive [inhibitor, single point] | –
18 | Cc1cccn2c(=O)c3cc(C(=O)N4COCC4(C)C)n(C)c3nc12 | inconclusive [activator, partial curve] | –
19 | CC(=O)Oc1c(S(=O)(=O)c2ccc(C)cc2)c(C)nn1C(C)(C)C | inconclusive [inhibitor, single point] | –
20 | CC(Oc1ccccc1)C(=O)NC1C(=O)N2C1SC(C)(C)C2C(=O)O (configuration not stated) | – | inconclusive: 17% [activator]
21 | CCOC(=O)c1cc(-c2ccccc2)sc1NC(=O)c1ccc(OC)c(OC)c1 | inconclusive [activator, single point] | –

Row | Structure (SMILES) | Potency | activity change, negative = inhibition
22 | CCOC(=O)CCCCC(=O)c1[nH]c(=O)[nH]c1CSc1nc(-c2ccccc2)c(C#N)c(=O)[nH]1 | inconclusive [inhibitor, partial curve, poor fit] | –
23 | O=C(CCSCCc1ccncc1)NCCCN1CCOCC1 | inconclusive [inhibitor, single point] | –
24 | Cc1ccc(OCCNC(=O)c2cc(-n3cnnc3)ccc2Cl)cc1C | inconclusive [inhibitor, full curve, poor fit] | –
25 | OCCCc1nc2n(n1)C(c1cccs1)C=C(c1ccc(Br)cc1)N2 (configuration not stated) | inconclusive [activator, single point] | –
26 | Cc1ccc(S(=O)(=O)NC(C(=O)Oc2ccc3c(C)c(Cl)c(=O)oc3c2)c2ccccc2)cc1 (configuration not stated) | inconclusive [activator, partial curve] | –
27 | Cn1c(SCC(=O)NCCN2C(=O)CSC2=O)nc2ccccc2c1=O | – | inconclusive: -25.6% [inhibitor]
28 | Cc1c(NCc2cc(Cl)cc(Cl)c2O)c(=O)n(-c2ccccc2)n1C | – | inactive: -12.6%
29 | O=C(O)c1cccc(N2C(=O)C3C4C=CC(C4=C(c4ccccc4)c4ccccc4)C3C2=O)c1 (configuration not stated) | – | inconclusive: 13.4% [activator]
30 | CCN(CC)CCN(Cc1cc2cc3c(cc2[nH]c1=O)OCCO3)C(=O)NC1CCCCC1 | inconclusive [inhibitor, partial curve] | –
31 | O=C(OCC1OC2OC3(CCCCC3)OC2C2OC3(CCCCC3)OC12)c1ccccc1 (configuration not stated) | inconclusive [inhibitor, single point] | –
32 | OCC1CCCCN1C(=S)Nc1ccc(Cl)cc1Cl (configuration not stated) | inconclusive [inhibitor, partial curve] | –
33 | COc1ccccc1C1C(C(N)=O)=C(C)Nc2ncnn21 (configuration not stated) | inconclusive [inhibitor, single point] | –
34 | COc1cc(/C=C(\C#N)c2nc3ccc(C)cc3[nH]2)cc([N+](=O)[O-])c1O | inconclusive [activator, single point] | –
35 | Cc1cc(C(=O)COC(=O)CN=C2NS(=O)(=O)c3ccccc32)c(C)n1CCc1ccc(Cl)cc1 | – | inconclusive: -17.6% [inhibitor]
36 | O=C(NN=C(Cc1ccccc1)Cc1ccccc1)c1ccccc1O | inconclusive [inhibitor, single point] | –
37 | CCCc1ccc(-c2c(C)sc(NC(=O)c3ccnn3C)c2C#N)cc1 | – | inconclusive: -17% [inhibitor]
38 | COc1cccc(N/C(N)=N/c2nc(C(F)(F)F)cc(C(F)(F)F)n2)c1 | inconclusive [inhibitor, single point] | –
39 | Cc1c(-c2n[nH]c(=S)n2-c2ccc(C(F)(F)F)cc2)nnn1-c1ccccc1 | inconclusive [inhibitor, partial curve] | –
40 | COc1ccc(NCC(=O)Nc2ccc(Br)cc2F)c(OC)c1 | – | inactive: 2.08%
41 | O=C(COc1ccc(Cl)c(Cl)c1)NN1C(=O)C2C(C1=O)C1C=CC2C12CC2 (configuration not stated) | inconclusive [inhibitor, full curve, poor fit] | –
42 | CC(C)NC(=O)Cn1nnc(-c2ccc(Cl)cc2)n1 | inconclusive [inhibitor, partial curve] | –

Row | Structure (SMILES) | Potency | activity change, negative = inhibition
43 | C#CCSc1nsc(SCC#C)c1C#N | inconclusive [inhibitor, single point] | –
44 | COc1ccc(N2CCN(C(=O)Cn3nnc(-c4ccccc4N)n3)CC2)cc1 | inconclusive [inhibitor, single point] | –
45 | Cc1ccc(S(=O)(=O)N2CCN(CC(=O)Nc3ccc4c(c3)CCC4)CC2)cc1C | inconclusive [inhibitor, partial curve] | –
46 | O=S(=O)(Nc1nc2ccccc2nc1Nc1cccc(S(=O)(=O)N2CCCCC2)c1)c1ccccc1 | inconclusive [activator, single point] | –
47 | COc1ccc(Cn2nnnc2C(c2cc3cc(C)ccc3[nH]c2=O)N2CCOCC2)cc1 (configuration not stated) | inconclusive [activator, partial curve, poor fit] | –
48 | CC(C)(C)c1cc(C(F)(F)F)c(C#N)c(=O)[nH]1 | inconclusive [activator, partial curve] | –
49 | Cc1cccc(/N=C2/NC(=O)C(Cc3ccccc3)S2)n1 (configuration not stated) | – | inconclusive: 18.6% [activator]
50 | COCCNC(=O)NC1(C(F)(F)F)Oc2ccc(Cl)cc2O1 (configuration not stated) | – | inactive: -9.49%
51 | C/C(N)=C(/C#N)C(=O)COC(=O)CSc1ccc2ccccc2c1 | inconclusive [inhibitor, single point] | –
52 | C=C(C)Cn1cnc2c(oc3nc4c(cc32)CCCC4)c1=O | inconclusive [activator, single point] | –
53 | COc1ccc(S(=O)(=O)N(C)CC(=O)Nc2cccc(C(C)=O)c2)cc1 | inconclusive [inhibitor, single point] | –
54 | CCN(CC)c1ccc(-c2nn3c(-c4ccccc4OC)nnc3s2)cc1 | inconclusive [activator, partial curve] | –
55 | CC(C)CN=Cc1c(O)c([N+](=O)[O-])cc2oc3c(c12)CCCC3 | – | inconclusive: -15.2% [inhibitor]
56 | N#CC(=C1CCCC1)c1nc(-c2ccccc2O)cs1 | – | inconclusive: -19.7% [inhibitor]
57 | COc1ccc(CNC(=O)C(c2ccncc2)N(C(=O)Cc2cccs2)c2cccc(C)c2)cc1 (configuration not stated) | – | inconclusive: -15.1% [inhibitor]
58 | COc1ccc2c(c1)-c1c(ssc1=S)C(C)(C)N2S(=O)(=O)c1ccc(C)cc1 | inconclusive [inhibitor, single point] | –
59 | COc1ccc(N=C2SC(C(=O)Nc3ccc(F)cc3)CC(=O)N2C)cc1 (configuration not stated) | inconclusive [inhibitor, single point] | –
60 | COc1ccc(OC)c(NC(=S)N(CCc2c(C)[nH]c3ccc(C)cc23)Cc2cccs2)c1 | inconclusive [inhibitor, full curve, poor fit] | –
61 | CCN1CCN(CC(=O)c2cc(OC)c(OC)c(OC)c2)CC1 | inconclusive [inhibitor, single point] | –
62 | Cc1ccccc1NC(=S)NNC(=O)c1csc2c1CCC(C)C2 (configuration not stated) | inconclusive [inhibitor, single point] | –
